The whole screen tested about 310,000 compounds, of which about 2,200 (0.71%) showed an effect of 50% or more. The effect is printed as a negative number. Some of the results follow.
Each molecule was assayed against human ether-à-go-go-related gene (hERG) potassium channel (human, UniProt Q12809) (assay: primary screen, population patch clamp on CHO cells stably expressing hERG).
Chain of human ether-à-go-go-related gene (hERG) potassium channel (Q12809 whole entry, looked up): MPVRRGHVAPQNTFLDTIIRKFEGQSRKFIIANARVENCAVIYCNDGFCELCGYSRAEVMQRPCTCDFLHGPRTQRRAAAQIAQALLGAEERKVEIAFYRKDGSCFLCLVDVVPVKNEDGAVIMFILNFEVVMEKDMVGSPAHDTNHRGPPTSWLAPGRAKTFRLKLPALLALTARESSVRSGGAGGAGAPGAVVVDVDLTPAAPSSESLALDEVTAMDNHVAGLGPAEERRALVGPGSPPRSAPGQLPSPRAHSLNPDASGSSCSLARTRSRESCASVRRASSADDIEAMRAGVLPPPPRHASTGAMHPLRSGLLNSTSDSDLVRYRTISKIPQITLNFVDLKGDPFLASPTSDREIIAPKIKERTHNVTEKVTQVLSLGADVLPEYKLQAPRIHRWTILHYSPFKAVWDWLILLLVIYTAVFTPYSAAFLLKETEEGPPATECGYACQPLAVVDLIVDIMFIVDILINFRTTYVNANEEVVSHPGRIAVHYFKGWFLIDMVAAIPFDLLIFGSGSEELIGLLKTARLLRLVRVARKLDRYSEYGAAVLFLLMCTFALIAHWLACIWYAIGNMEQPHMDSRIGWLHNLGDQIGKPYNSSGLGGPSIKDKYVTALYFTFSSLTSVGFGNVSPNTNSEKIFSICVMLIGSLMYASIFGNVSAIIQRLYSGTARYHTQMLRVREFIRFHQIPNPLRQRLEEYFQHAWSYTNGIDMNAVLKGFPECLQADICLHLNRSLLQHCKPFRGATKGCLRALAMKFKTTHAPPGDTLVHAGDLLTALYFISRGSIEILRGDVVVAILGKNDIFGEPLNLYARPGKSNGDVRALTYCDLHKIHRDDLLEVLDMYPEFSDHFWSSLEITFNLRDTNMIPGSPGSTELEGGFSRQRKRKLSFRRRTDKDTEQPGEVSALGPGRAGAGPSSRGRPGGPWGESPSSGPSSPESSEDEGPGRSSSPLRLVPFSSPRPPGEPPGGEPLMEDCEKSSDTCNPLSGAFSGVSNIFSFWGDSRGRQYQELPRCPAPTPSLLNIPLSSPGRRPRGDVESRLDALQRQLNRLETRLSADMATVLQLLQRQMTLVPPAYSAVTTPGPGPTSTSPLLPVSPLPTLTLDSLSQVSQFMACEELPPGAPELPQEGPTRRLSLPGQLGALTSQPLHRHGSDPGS

SMILES | hERG current change (%, negative = inhibition) at 1uM
COC(=O)c1sc(NC(=O)c2oc3ccccc3c2C)nc1C | 9.32%
c1ccc(Cc2nnc(N3CCCCC3)c3ccccc23)cc1 | 8.53%
COc1ccc(NC(=S)N2CCN(C(=O)c3ccco3)CC2)cc1OC | 11.1%
Cc1[nH]c(-c2ccc(F)cc2)cc1C(=O)N1CCN(c2ccccc2)CC1 | -29%
O=C(CCC(=O)Nc1ccccc1Cl)NNS(=O)(=O)c1ccc(Cl)cc1 | 7.75%
N#Cc1ccc(NC(=O)CCc2ccc(S(=O)(=O)N3CCOCC3)cc2)cc1 | -13.3%
COc1ccccc1CN1CCNC(=O)C1CC(=O)NC1Cc2ccccc2C1 (stereo not shown) | 5.71%
O=C(/C=C/NNC(=O)c1ccc(Br)cc1)c1ccccc1 | 18.8%
COc1ccccc1/C=C1\CCC(C2CCCC2)C1=O (stereo not shown) | 14.6%
O=C(NC1CC2CCCC(C1)N2Cc1cccs1)c1ccc([N+](=O)[O-])cc1 (stereo not shown) | -78.6%
COc1ccc(N2CCN(CC(=O)NC(=O)NC(C)(C)C)CC2)cc1 | 8.73%
CS(=O)(=O)N1CCN(Cc2cc(=O)n3ccsc3n2)CC1 | 15.2%
O=C(NN=C(Cc1ccccc1)Cc1ccccc1)c1ccccc1O | 5.77%
CC1(NC(=O)/C=C/c2nc3ccccc3s2)CCS(=O)(=O)C1 (stereo not shown) | 5.18%
OC(COC(c1ccc(Cl)cc1)c1ccc(Cl)cc1)CN1CCCC1 (stereo not shown) | -75.2%
COc1ccccc1C(=O)NC(=O)OCCn1c(C)cnc1[N+](=O)[O-] | -9.6%
CCOC(=O)C1=C(Cc2ccc(C)cc2)C(=O)c2ccccc2C1=O | 13.4%
CCN1C(=O)C(CC(=O)Nc2ccc(OC)cc2)N(CCc2ccccc2)C1=S (stereo not shown) | 13.3%
CC(C)C(c1nnnn1C1CCCCC1)N1CCN(c2ncccn2)CC1 (stereo not shown) | 6.99%
C=CCNc1nc(NC(C)(C)CO)nc(OCC)n1 | 7.18%
CC(Sc1nnc(-c2ccncc2)n1C)C(=O)Nc1nccs1 (stereo not shown) | 12.7%
CCOC(=O)c1c(NC(=O)C(c2ccccc2)c2ccccc2)sc2c1C1CCN2CC1.Cl | 9.83%

SMILES | hERG current change (%, negative = inhibition) at 1uM
COc1ccc2c(c1)N(C)C(=O)CC(c1ccccc1)=N2 | 1.78%
CSCCC(C(=O)N(C)CC(=O)Nc1cccc(F)c1)N1C(=O)c2ccccc2C1=O (stereo not shown) | 4.88%
O=C1CCC(=O)O1 | 11%
CCN(CC)CCCNC(=O)c1ccc2c(=O)n(Cc3ccc4c(c3)OCO4)c(=S)[nH]c2c1 | -2.54%
CC1(C)C2([N+](=O)[O-])CN3CC1([N+](=O)[O-])CN(C2)C3c1ccc(O)c(O)c1 (stereo not shown) | 12.2%
c1cc(CSc2nnc(-c3ccc4c(c3)OCO4)o2)ccn1 | 10.2%
CC(C)c1ccc(NC(=O)c2cc(S(=O)(=O)N3CCCCC3)c[nH]2)cc1 | 10.3%
Cn1ccsc1=NC(=O)c1ccc(S(C)(=O)=O)cc1 | 14.4%
Cn1c(=O)c2[nH]c(-c3ccccc3)c(O)c2n(C)c1=O | 16.6%
COc1cc(NC(=O)c2ccccc2F)ccc1NC(=O)c1cc2ccccc2o1 | 10.5%
CCCN(CC#CC(O)(c1ccccc1)c1cccnc1)CCC (stereo not shown) | -14.8%
Cc1cc(O)c(CN2CC=C(c3ccccc3)CC2)cc1C(C)C | 1.93%
Cc1ccc(NC(=O)CN2C(=O)NC3(CCCC3)C2=O)c(Cl)c1 | 16.1%
COC(=O)c1cc(C(=O)OC)cc(S(=O)(=O)Nc2ccc(Cl)c(N)c2)c1 | 10.4%
CC(OC(=O)c1ccccc1NCc1ccco1)C(=O)Nc1ncc(Cl)cc1Cl (stereo not shown) | 12.6%
COc1cc(NC(=O)c2ccnc(N)c2)cc(C(=O)Nc2cccc(C(F)(F)F)c2)c1 | 11.5%
CC(C)(C)c1oc(C(=O)O)cc1CN1CCOCC1.Cl | 15.6%
CCOC(=O)[C@H]1[C@H]2COc3ccccc3[C@@H]2N2C(=O)c3cc(Cl)ccc3NC(=O)[C@@]12C | 12.3%
O=S(=O)(/N=C(/Nc1cccc2ccccc12)c1ccccc1)c1ccccc1 | 8.64%
CCOCCCNC(=S)N1CCC(NC(=O)C23CC4CC(CC(C4)C2)C3)CC1 | 7.14%
CN(C)c1ccc(C(=O)C(O)c2ccc(C(C)(C)C)cc2)cc1 (stereo not shown) | 8.3%
CCC1CCCCN1C(=O)COC(=O)c1cc(Br)ccc1Cl (stereo not shown) | 12.3%

SMILES | hERG current change (%, negative = inhibition) at 1uM
CC(C)CNS(=O)(=O)c1ccc(CCC(=O)NCC2CCCO2)cc1 (stereo not shown) | 9.89%
CC(CC(=O)N1CCN(S(=O)(=O)c2ccc(Cl)cc2)CC1)n1cncn1 (stereo not shown) | 9.75%
O=C(c1cc(F)ccc1F)C1CCCN(C(=O)c2ccc3nccnc3c2)C1 (stereo not shown) | 7.93%
O=C(OCCCCN1C(=O)c2ccccc2C1=O)c1ccc(S(=O)(=O)N2CCCC2)cc1 | 10%
Cc1ccc(NC(=S)NCc2ccc3c(c2)OCO3)cc1C | 2.64%
O=C(CN1C(=O)CCSc2ccc(S(=O)(=O)N3CCCC3)cc21)Nc1ccccc1Cl | 15.6%
CC(C)Cc1ccc(C#N)c(SCC(N)=O)n1 | 2.11%
CC(=O)c1ccc2c3c(cccc13)C(=O)N(CCc1ccccc1)C2=O | 10.9%
COc1ccc(Cn2nnnc2C(c2cc3cc(C)ccc3[nH]c2=O)N2CCN(C)CC2)cc1 (stereo not shown) | -4.56%
c1ccc(-c2ccc3[nH]ccc3c2)cc1 | 7.13%
CCCc1nc(SCC(=O)NNC(=O)c2ccc(OC)cc2)c2ccccc2n1 | 3.84%
CC(OC(=O)c1cc(S(=O)(=O)Nc2ccc(F)cc2)ccc1Cl)C(=O)Nc1ccc2c(c1)OCCO2 (stereo not shown) | 8.96%
CCCn1c(=O)[nH]c(=O)c2c(C(F)(F)F)cc(-c3ccc(C)cc3)nc21 | 15.2%
O=C(CCCc1ccccc1)Nc1ccccc1[N+](=O)[O-] | 14.8%
COc1cc(-c2noc(C3CCCN(C(=O)c4ccccc4)C3)n2)cc(OC)c1OC (stereo not shown) | 1.93%
O=C(N/N=C/C1CCCCC1)c1cc(Cl)ccc1O | 2.28%
O=C(CNC(=O)c1ccc(S(=O)(=O)N2CCCC2)cc1)N/N=C/c1ccc(F)cc1 | 8.22%
O=C(CCC(=O)N1CCN(c2ccc(F)cc2)CC1)N1CCN(c2ccc(F)cc2)CC1 | -15.1%
CC(=O)c1cc2c(C)cc(=O)oc2cc1O | 11.6%
O=C(CCN1C(=O)/C(=C\c2ccccc2)SC1=S)N1CCOCC1 | 17.4%
CC(=O)c1cccc(NC(=O)CN2C(=O)c3ccccc3C2=O)c1 | 12.4%
O=C1CN(C(=O)c2ccccc2C(=O)O)c2ccccc2N1 | 13.2%

SMILES | hERG current change (%, negative = inhibition) at 1uM
O=[N+]([O-])c1ccc(Nc2ccc3ccccc3c2)nc1 | 8.78%
COc1ccc(OC)c(NC(=O)CCNC(=O)c2ccco2)c1 | 7.57%
O=C(NC1CCN(Cc2ccccc2)CC1)C(NS(=O)(=O)c1cccc2nsnc12)c1ccccc1 (stereo not shown) | -12.1%
CCCCOC(=O)C(C)Oc1ccc(=O)n(-c2ccccc2)n1 (stereo not shown) | 5.48%
O=C(NNS(=O)(=O)c1ccccc1[N+](=O)[O-])c1cccc(Br)c1 | 9.91%
COc1ccccc1CN1C[C@@H]2C[C@@H](c3ccc(C)cc3)N3CCC[C@@]23C1=O | -0.663%
O=C(Cc1ccc(Cl)cc1)Nc1ncccn1 | 11.1%
CCn1c(COc2cccc(C)c2C)nnc1SCC(=O)N1CCN(c2ccc(OC)cc2)CC1 | -0.263%
C=CCn1c(SCC(=O)Nc2ccc(F)cc2)nnc1-c1cnccn1 | 16%
C=CCN1C(=O)CN=C1Nc1cccc(C)c1.Cl | 12.3%
CCC(c1nnc(SCC(=O)NCC2CCCO2)n1Cc1ccccc1)N(C)C (stereo not shown) | -2.76%
CCOC(=O)C1=C(O)/C(=C\c2ccc(CNS(=O)(=O)c3ccc(Br)cc3)o2)N=C1C | 12.3%
O=C(NCCc1ccccc1)C(=O)Nc1ccc([N+](=O)[O-])cc1 | 11%
O=C(CCCc1ccccc1)NCc1ccccc1 | 20.2%
CCn1cc(CN2CCc3c([nH]c4ccccc34)C2c2ccc(F)c(OC)c2)c(C)n1 (stereo not shown) | 7.17%
COc1ccccc1CNS(=O)(=O)c1ccc(-n2cccn2)cc1 | 13.3%
CCOC(=O)C1CCCN(C(=O)c2sc3nc(C)nc(N(CC)CC)c3c2C)C1 (stereo not shown) | -11.3%
S=c1nc(-c2ccccc2)[nH]n1-c1ccccc1 | 7.93%
C(=N\Nc1ncnc2sc3c(c12)CCC3)/c1ccncc1 | -0.416%
CC(NC(=O)C1CCCN(S(=O)(=O)c2cccs2)C1)c1ccccc1 (stereo not shown) | 11.6%
CN1C(=O)NC(c2ccccc2)C2=C1CN(c1ccc3ccccc3c1)C2=O (stereo not shown) | 9.13%
COc1ccc(CC(=O)Nc2ccc(OC)c(NC(=O)c3ccco3)c2)cc1 | 9.1%

Source: PMC4336329 (PLoS ONE, 2015)
